# Test results taken from PubChem BioAssay AID1468 (National Center for Advancing Translational Sciences (NCATS), 2008).
# Hit rate of the full screen: of about 280,000 compounds, about 1,100 (0.39%) were called active. Inconclusive results, whose numbers are uncertain, are shown with a selection of clear calls. Calls come from the whole dose curve; as a rule, active = well fitted inhibition curve with a large enough effect; inconclusive = small, poorly fitted or top-dose-only effect, or effect the other way; inactive = flat fitted curve, though single readings scatter. Potencies of inconclusive entries are left out as doubtful fits.
# Target: Microtubule-associated protein tau (Homo sapiens) (UniProt P10636)
# Test: qHTS for Inhibitors of Tau Fibril Formation, Fluorescence Polarization; note: nearly all actives have a fitted effect of over 55% in size
# Conditions: K18 P301L tau heparin fibrillization, Alexa594 FP, 6 h; series mostly up to 57.7 µM
# How it was run: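 Human tau K18 […] P301L fragment, 15 uM unlabeled plus 0.24 uM Alexa 594-labeled tau (final), with compound and 20 uM heparin in 100 mM sodium acetate pH 7; 6 hr at 37 C, then Alexa 594 FP read.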
# % is set by controls: 0 for no effect and ±100 for the full control effect; potency is the fitted concentration of half-maximal effect; tags give direction and shape of the fitted curve.
# Sequence of UniProt P10636 (P10636 whole entry, looked up): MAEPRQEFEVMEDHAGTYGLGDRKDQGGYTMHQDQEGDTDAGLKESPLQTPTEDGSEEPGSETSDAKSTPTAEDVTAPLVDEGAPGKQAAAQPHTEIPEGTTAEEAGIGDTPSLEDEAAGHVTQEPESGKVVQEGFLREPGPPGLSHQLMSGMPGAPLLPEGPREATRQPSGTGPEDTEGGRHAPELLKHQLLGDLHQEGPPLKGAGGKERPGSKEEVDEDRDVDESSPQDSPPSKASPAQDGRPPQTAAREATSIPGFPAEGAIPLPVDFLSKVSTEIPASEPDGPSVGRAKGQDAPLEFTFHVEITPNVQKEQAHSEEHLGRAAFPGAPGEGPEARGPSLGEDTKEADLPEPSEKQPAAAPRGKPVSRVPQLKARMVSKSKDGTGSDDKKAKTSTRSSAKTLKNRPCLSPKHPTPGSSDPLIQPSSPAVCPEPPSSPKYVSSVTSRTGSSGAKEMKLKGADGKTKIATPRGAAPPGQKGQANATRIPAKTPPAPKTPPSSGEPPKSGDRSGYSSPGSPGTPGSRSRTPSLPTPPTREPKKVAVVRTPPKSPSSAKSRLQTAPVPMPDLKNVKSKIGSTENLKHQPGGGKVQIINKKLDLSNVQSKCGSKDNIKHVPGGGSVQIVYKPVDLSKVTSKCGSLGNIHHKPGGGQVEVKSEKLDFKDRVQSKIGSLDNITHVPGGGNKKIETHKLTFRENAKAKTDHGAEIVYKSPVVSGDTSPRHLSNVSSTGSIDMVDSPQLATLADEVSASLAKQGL
SMILES,Potency,"activity, negative = inhibition"
O=C(NNC(=S)NCCc1ccccc1)c1ccc(Br)s1,"inconclusive [activator, single point]",
Cc1ccc(-n2nc(CO)c(C(=O)NCCCc3ccccc3)n2)cc1,inactive,
CCc1nc2ccc(C)cc2c(C(=O)NC2CCCCC2C)c1C (stereo unspecified),inactive,
O=C1CCCC/C1=C\Nc1ccc(O)cc1,"inconclusive [inhibitor, single point]",
CCN(CC)c1ccc(/C=C(/C#N)C(=O)NC(C)C)o1,inactive,
Cc1ccc(C(=O)Nc2onc3c2CCCC3)cc1,inactive,
Cc1nc2sc(C(N)=O)c(N)c2c(-c2ccc(Br)cc2)c1C(=O)Nc1ccc(Cl)cc1,"inconclusive [inhibitor, single point]",
O=C(N/N=C/c1ccc(OCc2ccc(F)cc2)cc1)c1ccccc1,inactive,
CC1CCN(c2c([N+](=O)[O-])nn(-c3ccc4c(c3)OCCO4)[n+]2[O-])CC1,"inconclusive [activator, partial curve, poor fit]",
CC1CCc2c(C(=O)OCC(=O)Nc3cccc(S(=O)(=O)N4CCCCCC4)c3)csc2C1 (stereo unspecified),"inconclusive [inhibitor, partial curve]",
O=C(Nc1nc(-c2ccccc2)cs1)c1cccc(S(=O)(=O)N2CCN(Cc3ccccc3)CC2)c1,"inconclusive [inhibitor, partial curve, poor fit]",
Cc1ccc(Oc2ccc(Cl)cc2NC(=O)c2cnccn2)cc1,"inconclusive [inhibitor, single point]",
COCCCNc1nc2c(S(=O)(=O)c3ccc(C)c(C)c3)nnn2c2ccc(Cl)cc12,"inconclusive [inhibitor, partial curve]",
C(=N\Nc1nc(-c2ccccc2)cs1)/c1cccnc1,inactive,
Cc1ccc2oc(-c3cc(NC(=O)c4ccco4)ccc3Cl)nc2c1,"inconclusive [inhibitor, partial curve]",
Cc1nn(Cc2ccccc2)c(C)c1N,inactive,
CC1(C)CC(=O)C2=C(C1)Oc1ncn(CCCO)c(=N)c1C2c1ccccc1 (stereo unspecified),"inconclusive [inhibitor, partial curve, poor fit]",
CSc1ncc(C(=O)Nc2ccc(F)cc2F)c(-c2ccccc2)n1,"inconclusive [inhibitor, single point]",
COc1cc(OC)c(NS(=O)(=O)c2cc(-c3cnc(C)o3)ccc2OC)cc1Cl,inactive,
O=C(Nc1ccc(Cl)c([N+](=O)[O-])c1)c1ccc2c(c1)OCCO2,"inconclusive [inhibitor, single point]",
CC(C)OC(=O)NCCOC(=O)Nc1cccc(Cl)c1,"inconclusive [inhibitor, single point]",
Cc1ccc(-c2nn(-c3ccccc3)cc2CO)o1,"inconclusive [inhibitor, single point]",
CCOC(=O)c1ccc(N2C(=O)c3n[nH]c(-c4ccco4)c3C2c2ccc(O)c(OC)c2)cc1 (stereo unspecified),"inconclusive [inhibitor, full curve, poor fit]",
Cc1cn(C)c(CC(=O)NCc2ccccc2Cl)c1C(=O)O,inactive,

SMILES,Potency,"activity, negative = inhibition"
COc1ccc2nc(NC(=O)CSc3nc(C)cc(=O)[nH]3)sc2c1,inactive,
COc1cc(OC)c(Nc2nc3ccccc3nc2-n2nc(C)cc2C)cc1Cl,"inconclusive [activator, full curve, poor fit]",
COC(=O)c1scc(-c2ccc(C)cc2)c1S(=O)(=O)N1CCN(c2ccc(OC)cc2)CC1,"inconclusive [activator, partial curve]",
CCN1CCN(CC(=O)NC2CCCCC2)C(=O)C1=O,inactive,
CCCCN(CCCC)C(=O)c1sc2nc(N3CCOCC3)c3c(c2c1N)CCCC3,"inconclusive [inhibitor, single point]",
C[C@@H](NC(=O)c1nc[nH]c1C(=O)N[C@@H](Cc1ccccc1)C(=O)OC(C)(C)C)c1ccccc1,"inconclusive [inhibitor, partial curve]",
COc1ccc2c(c1)OCC(Cc1ccc(OC)c(OC)c1)C2=O (stereo unspecified),inactive,
CCOc1cc(C)c(S(=O)(=O)Nc2ccc3cn[nH]c3c2)cc1C,"inconclusive [inhibitor, partial curve]",
CCOC(=O)c1sc(NC(=O)c2ccc(S(=O)(=O)N3CCOCC3)cc2)cc1C,"inconclusive [inhibitor, partial curve]",
CCOC(=O)c1cnn(-c2cc(Oc3ccccc3)ncn2)c1N,inactive,
CCOc1ccccc1C(=O)Nc1ccsc1C(=O)OC,inactive,
O=C1CC(N2CCC(c3nc4ccccc4[nH]3)CC2)C(=O)N1c1ccccc1F (stereo unspecified),inactive,
COc1ccc2c(c1)sc1ncc(C(=O)NCc3cccc(Cl)c3)c(=O)n12,inactive,
CN(C)S(=O)(=O)c1cccc(NC(=O)COC(=O)c2ccc3c(c2)OCO3)c1,inactive,
C=CCN1C(=O)/C(=c2\sc3nc(=O)c(Cc4ccccc4Cl)nn3c2=O)c2ccccc21,"inconclusive [inhibitor, partial curve]",
COc1ccc(-n2c3c(cc(-c4nc(-c5ccc(Cl)cc5)cs4)c2=O)C(=O)CC(C)(C)C3)cc1,"inconclusive [inhibitor, single point]",
O=C1c2[nH]nc(-c3ccc(Br)cc3)c2C(c2cccc(O)c2)N1c1ccc(Cl)cc1 (stereo unspecified),active: 12.6 µM,
CCn1c(SCC(=O)N/N=C/C=C/c2ccco2)nnc1-c1ccccc1,"inconclusive [inhibitor, single point]",
Cc1ccc(N(C)S(=O)(=O)c2nnc(NC(=O)C3CCCCC3)s2)cc1,"inconclusive [inhibitor, single point]",
CCOc1ccc2nc(N=NC3=C(O)CC(C)(C)CC3=O)sc2c1,inactive,
CCOCc1nnc(NC(=O)c2cccc(OC)c2)s1,inactive,
Cc1cc(NC(=O)N(C)CCc2c(C)nn(C)c2C)ccc1Br,inactive,
Cc1nc(NC(=O)c2ccccc2)sc1-c1csc(Nc2cccc(Cl)c2)n1,"inconclusive [activator, full curve]",
Fc1ccccc1Nc1nc2ccccc2n2nnnc12,"inconclusive [activator, partial curve]",

SMILES,Potency,"activity, negative = inhibition"
COC(=O)C1=C(C)N(Cc2ccccc2)C2=C(C(C)=O)C(c3ccccc3)[C@@](O)(C(=O)OC)C(=O)N2C1c1ccccc1 (stereo partly specified),"inconclusive [inhibitor, single point]",
COC(=O)COc1ccc(S(=O)(=O)N2CCCCCC2)cc1,inactive,
O=[N+]([O-])c1ccc(-c2csc(N/N=C/c3cccnc3)n2)cc1,inactive,
O=c1[nH]c(=O)n(Cc2ccco2)c2c1C(C(F)(F)F)(C(F)(F)F)N=C(c1ccc(F)cc1)N2,inactive,
COc1cc(C2C(C(=O)Nc3ccc(C)cc3C)=C(C)Nc3nc4ccccc4n32)cc(OC)c1OC (stereo unspecified),"inconclusive [inhibitor, single point]",
Cc1ccc(S(=O)(=O)N(CCc2ccccc2)CC(=O)Nc2cc(C)ccc2C)cc1,inactive,
Oc1ccc(Cl)cc1/C=C/c1ccc2cccc(O)c2n1,"inconclusive [inhibitor, single point]",
CCCCC(=Nc1ccc(N)cc1)C1=C(O)C(C(=O)OC)C(C)(C)CC1=O (stereo unspecified),active: 25.1 µM,
O=C1[C@H]2[C@H]3[C@H](O)[C@H](O)C/C(=N/OC[C@@H](O)COCc4ccco4)[C@H]3CC[C@@H]2C(=O)N1Cc1ccccc1,,inactive: -0.192% [at 11.6 µM]
CCc1cccc2c(C(=O)COC(=O)/C=C/c3ccccc3OC)c[nH]c12,"inconclusive [inhibitor, full curve]",
O=c1nc2n(c3c1oc1ccccc13)Cc1ccccc1-2,"inconclusive [inhibitor, single point]",
Cc1cccc(NC(=O)Cn2nnc(C(=O)Nc3ccccc3Br)c2N)c1C,inactive,
CC(=O)c1cccc(NC(=S)Nc2ccn(Cc3cccc4ccccc34)n2)c1,"inconclusive [inhibitor, single point]",
Cc1ccc(F)c(NC(=O)Nc2ccc3snnc3c2)c1,"inconclusive [inhibitor, partial curve]",
COc1ccc(OC)c2c(C)cc(N3CCN(C(=O)c4ccc(Cl)cc4)CC3)nc12,inactive,
Oc1c(N=Nc2ccccn2)ccc2ccccc12,"inconclusive [inhibitor, single point]",
Oc1ccc(Nc2nc3ccccc3nc2Nc2ccc(O)cc2)cc1,"inconclusive [inhibitor, single point]",
Cc1ccc(NC(=O)CSC2=Nc3ccccc3C3CC=NN23)c(C)c1 (stereo unspecified),"inconclusive [inhibitor, partial curve]",
O=C(Nc1nc(=S)ss1)c1ccc(Cl)cc1Cl,"inconclusive [inhibitor, single point]",
CCOC(=O)c1sc(NC(=O)CSc2n[nH]c(-c3ccccc3)n2)c(C#N)c1C,"inconclusive [inhibitor, partial curve, poor fit]",
O=C(Nc1ccccc1)Nc1cc(Cl)cc(Cl)c1,active: 11.2 µM,
CCOc1ccc(CCNC(=O)c2cn(CC)c3ccc(S(=O)(=O)N4CCCCCC4)cc3c2=O)cc1OCC,inactive,
COc1ccc(-n2nnc3c(=O)n(CC(=O)N4CCCc5ccccc54)cnc32)cc1,"inconclusive [inhibitor, single point]",
